# Whole data set: some 33,000 sequences, median “E-score (-0.5 to 0.5)” near -0.012, cut for the highest 2% near 0.29. The list shows a part of the results.
# Molecular target: T1, Ybr033w (UniProt P38073)
# T1 sequence: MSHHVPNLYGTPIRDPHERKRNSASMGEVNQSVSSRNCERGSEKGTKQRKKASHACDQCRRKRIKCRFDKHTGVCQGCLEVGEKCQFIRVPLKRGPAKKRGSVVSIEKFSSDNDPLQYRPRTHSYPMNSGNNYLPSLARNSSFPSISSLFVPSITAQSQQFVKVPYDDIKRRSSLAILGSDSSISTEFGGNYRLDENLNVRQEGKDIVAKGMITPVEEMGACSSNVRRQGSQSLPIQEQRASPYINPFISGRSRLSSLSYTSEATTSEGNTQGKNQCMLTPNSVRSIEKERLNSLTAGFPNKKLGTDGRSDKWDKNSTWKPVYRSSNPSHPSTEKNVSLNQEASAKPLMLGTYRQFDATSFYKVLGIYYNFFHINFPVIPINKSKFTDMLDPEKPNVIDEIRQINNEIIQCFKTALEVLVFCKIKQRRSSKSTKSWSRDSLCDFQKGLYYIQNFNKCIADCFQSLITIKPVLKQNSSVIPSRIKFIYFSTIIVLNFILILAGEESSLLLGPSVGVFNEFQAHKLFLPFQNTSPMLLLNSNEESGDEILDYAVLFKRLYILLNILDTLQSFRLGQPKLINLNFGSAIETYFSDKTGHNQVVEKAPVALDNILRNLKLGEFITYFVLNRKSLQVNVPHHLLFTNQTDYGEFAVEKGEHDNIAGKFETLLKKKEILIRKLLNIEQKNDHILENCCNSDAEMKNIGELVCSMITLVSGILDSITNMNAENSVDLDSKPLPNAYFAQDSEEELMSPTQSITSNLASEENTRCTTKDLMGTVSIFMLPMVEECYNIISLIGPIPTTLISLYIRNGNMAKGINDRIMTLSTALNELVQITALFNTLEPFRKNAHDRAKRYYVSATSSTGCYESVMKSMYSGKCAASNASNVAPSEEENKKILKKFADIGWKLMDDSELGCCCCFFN
# Test: PBM E-score (8-mer binding enrichment) (E-score (-0.5 to 0.5)); higher = stronger / more preferred TF binding; most listed sequences are background and not binding sites
# Details: protein concentration: 200 nM; construct: GST-full length
# Summary of the method: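 Bound GST-tagged yeast transcription factors, applied at about 100-200 nM to double-stranded universal all-10-mer Agilent arrays, were detected with fluorescent anti-GST. Scans were normalised with masliner. A modified Wilcoxon-Mann-Whitney statistic, the E-score, was assigned to each ungapped eight-base word pooled with its reverse complement by the Universal PBM Analysis Suite.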
row,Sequence,PBM E-score
1,AAAGAGAA,0.0579
2,CCTCAAGA,0.0867
3,AGGTAACT,0.0991
4,AGCCGGCC,-0.0824
5,ACCTACTC,-0.0816
6,AAGCTTGA,0.00734
7,CACGGTCA,-0.101
8,AAGTCAGA,-0.0299
9,GAAATATC,0.231
10,AGTATGTC,0.106
11,GCCCAAAC,0.0101
12,CCCCCAGA,-0.409
13,AGAGAAGA,0.102
14,ACGACGAA,0.0882
15,ACTCTACT,0.0812
16,AAAGTCTT,-0.0391
17,TTGAAAAA,0.237
18,CGTAATTC,0.0565
19,AACTTATG,0.223
20,ATTGCGTC,-0.0218
21,CACCCAAC,-0.136
22,CTTAACCC,-0.0993
23,ACTTGCAG,-0.0578
24,CGCCAGTC,-0.126

row,Sequence,PBM E-score
1,ATAAGCTA,0.0566
2,ATATCGGA,0.18
3,CAGCCTGG,-0.125
4,CTCCTACC,-0.0519
5,TACCCGTA,0.0736
6,AGACTGTG,-0.155
7,CTAATGTC,0.135
8,CAAAAAGG,-0.0467
9,AGTTGTTC,0.337
10,ATATCCGC,0.119
11,GTACGGAA,0.216
12,CGTTATAA,0.05
13,TCAGGTAA,0.0046
14,AAATGGAC,0.0958
15,AGCAGTTC,0.144
16,AGGCCATC,-0.193
17,ATCAGCCA,-0.111
18,TACGGGGA,-0.183
19,TCTTATAA,0.0725
20,TCGGATAA,0.335
21,AAAAGGGT,0.0255
22,AGTCCCCA,-0.321
23,ATCGCCGA,-0.122
24,CGGTCAGA,-0.0886

row,Sequence,PBM E-score
1,ATTAAAGC,0.141
2,TCACTCCA,-0.02
3,CAGCGCTC,-0.192
4,CGCGTAAC,-0.0497
5,CTTCGCGA,-0.0738
6,CTCGGATC,0.0946
7,AACAGACC,0.0535
8,CAACTCTG,-0.0426
9,CGTTATCC,-0.118
10,CCTGACCG,-0.284
11,CATTCGCC,-0.211
12,AAAGATTT,0.0994
13,CCGGTGCC,-0.246
14,ATGCCATC,0.0751
15,AACCCGGA,0.0617
16,AGGCTGTG,-0.0875
17,ACCTAGCC,-0.178
18,GTTCAGTA,0.0555
19,ACGCGGTA,-0.142
20,GCATATAC,-0.0177
21,TACACCTA,0.153
22,CATAGGCG,-0.167
23,CCTTCCAA,-0.00474
24,GTATAGCA,0.16

row,Sequence,PBM E-score
1,GGGCAAAA,0.0829
2,ACGGGCAT,-0.108
3,GCTAGAGC,-0.189
4,GCAGGGAC,-0.129
5,GAACGCTA,-0.114
6,AAATCATT,0.191
7,CTACGGTC,-0.233
8,CACAGTAC,0.045
9,CTCCATTC,-0.0984
10,AGAATCCC,0.0981
11,CTCGGGGC,-0.316
12,CCCTTTTC,-0.115
13,ATTGCTCC,0.0834
14,CAGTCCGG,-0.187
15,CACAACAC,-0.027
16,ATAAGATA,0.237
17,CAGTGTGC,-0.271
18,ACACTCCG,-0.0654
19,CAGAGTGA,-0.0197
20,AGGATGGC,-0.12
21,CTCATTGA,-0.106
22,AAGACCAC,-0.281
